Experimental data as given in the supplement of paper PMC3334620.
Whole data set: some 33,000 sequences, median “E-score (-0.5 to 0.5)” near -0.011, cut for the highest 2% near 0.28. The list shows a part of the results.

molecular target: T1, Gcr1 (UniProt P07261); assay: PBM E-score (8-mer binding enrichment) (E-score (-0.5 to 0.5)); higher = stronger / more preferred TF binding; most listed sequences are background and not binding sites; conditions: protein concentration: 100 nM; construct: GST-full length
T1 sequence: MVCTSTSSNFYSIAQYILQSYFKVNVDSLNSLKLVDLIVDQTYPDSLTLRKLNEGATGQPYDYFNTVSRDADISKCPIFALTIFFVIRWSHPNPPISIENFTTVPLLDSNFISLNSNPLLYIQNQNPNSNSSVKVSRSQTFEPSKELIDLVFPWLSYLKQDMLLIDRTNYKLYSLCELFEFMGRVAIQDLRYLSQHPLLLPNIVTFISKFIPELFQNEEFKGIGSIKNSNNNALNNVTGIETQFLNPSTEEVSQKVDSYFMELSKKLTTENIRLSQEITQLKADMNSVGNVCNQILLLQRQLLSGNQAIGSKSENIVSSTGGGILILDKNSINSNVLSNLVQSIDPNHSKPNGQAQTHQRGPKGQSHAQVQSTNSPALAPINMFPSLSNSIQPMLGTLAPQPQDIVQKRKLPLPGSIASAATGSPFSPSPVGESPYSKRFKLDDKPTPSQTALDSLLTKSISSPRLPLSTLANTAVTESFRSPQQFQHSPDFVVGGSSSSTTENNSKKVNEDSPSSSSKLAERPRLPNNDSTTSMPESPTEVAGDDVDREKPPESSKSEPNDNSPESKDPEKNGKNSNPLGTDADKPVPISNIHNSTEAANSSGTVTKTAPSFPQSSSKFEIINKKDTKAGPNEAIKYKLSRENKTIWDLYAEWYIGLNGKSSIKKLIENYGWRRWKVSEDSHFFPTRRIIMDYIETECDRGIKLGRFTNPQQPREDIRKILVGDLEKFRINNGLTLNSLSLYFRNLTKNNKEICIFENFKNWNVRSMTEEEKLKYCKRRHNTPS
Method: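 Universal 'all 10-mer' protein binding microarrays (Agilent AMADID 015681) probed with GST-tagged S. cerevisiae TFs (full-length or DBD) made by in vitro transcription/translation (PURExpress), about 100-200 nM. Bound TF was detected with fluorescent anti-GST. Each ungapped 8-mer (which stands for itself and its reverse complement) is scored by the PBM enrichment score (E-score), a modified Wilcoxon-Mann-Whitney statistic from -0.5 to +0.5, computed with the Universal PBM Analysis Suite. Scale: above 0.35 generally sequence-specific binding.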

Sequence	PBM E-score
AATACAAA	-0.00293
GAAGATGC	0.202
GGTACAAA	-0.128
CTCGATGA	-0.0328
CGCATCGA	0.0887
AACACCTC	-0.0203
AGCCAGCT	-0.106
TATCACCA	0.162
ATTGTCCG	-0.0479
CCATAGCG	-0.00534
AATTGCCA	-0.0551
TGCAGCCA	0.00515
CTAGTGAC	0.112
AGCCTTCA	-0.16
CGCAGTAG	0.00028
CATGAGCC	-0.247
AATCACTA	0.11
ATTGGGGA	-0.0622
AGGACGAA	-0.128
AATGCCGT	-0.0487
CATTGCAA	-0.0752
TAAAGCAA	-0.0965
CTCGCCCA	-0.0222
GGGCAGTA	-0.0924
GGGTCACA	-0.143

Sequence	PBM E-score
CGGTACGC	-0.0877
CGTCGCAC	-0.116
ACGGGATG	0.0415
CCTGTTCC	0.0795
AGATTTCA	0.128
ATCTATTC	0.066
GTATTTGA	0.0535
TATTAAGA	0.202
GGAGCGAA	-0.0873
ATGGCATC	0.175
CGGACGTC	0.134
GACGTGAC	-0.19
ATAAGTCC	-0.115
ACCCAGAT	0.135
TCGAAGCA	-0.152
GAGAACAC	-0.0589
CGCCATAA	0.143
GAACCACA	0.0678
GACAGTGA	-0.178
ACACAATA	0.0111
TACACGCA	0.235
TAAGCCAA	0.0672
ATCTTGTA	0.185
TACGGACA	-0.0831
AGAATGTC	-0.0871

Sequence	PBM E-score
CCCAAAGA	0.2
CAGGTGTC	0.0776
GATCTAGA	0.165
ACATCCAT	-0.134
AACTAAGA	0.0588
AGCCTCTG	0.0714
AACTGCTA	0.0143
GAAAGCGA	0.0995
CGAAAGAG	-0.0406
TAGTATGA	0.0561
AATTTGCT	0.0719
CAAATGCA	-0.11
GCAAATGA	-0.0634
GCGAGAGC	-0.0442
AATTTAAT	0.0785
AGCGAAAG	0.0778
AGACAATA	-0.117
ACCGCTAA	0.0833
CATTATCA	0.0688
TAGTGGGA	0.22
ACCCGGGG	0.0615
GATTACGC	0.00172
AAGTGATC	-0.0428
CTCGGTCA	-0.199
TCAGGAAA	-0.0586

Sequence	PBM E-score
ATATTGGA	0.205
CCGAGCCA	-0.0468
ATCACGCC	-0.0162
GTAGACGA	0.0867
ACACACCA	-0.0914
AGAGCGAG	0.00999
CCTACGCC	-0.217
AGAGCCCC	0.016
CCACATAC	0.116
ACACTTGA	-0.2
GAAAGTAC	-0.0722
TCATAGAA	-0.0688
GACGATAC	0.0896
ACATAGGT	0.0584
GCATCATA	0.18
GACCAACA	0.0568
ATAGAAGA	0.0114
CTGGGCCA	-0.262
ATTATAAC	0.0894
CGAACCTA	-0.117
ACCCGCAA	0.0318
ACTTGTTA	0.175
CCATGCCC	-0.119
CCTGGATC	-0.00306
CTGCGCAG	0.00124

Sequence	PBM E-score
ATCTTCTC	-0.00483
CTCACGCA	0.0172
AATAGGGA	0.0607
CACAGCGG	-0.113
GAACAATA	-0.0142
TCAGGCGA	-0.0619
ATTAGTGC	-0.00168
GCTGGCAA	0.155
CAGCACAG	-0.0678
AGATCCGC	-0.0362
AGGAGTCG	-0.069
GCGACTGA	-0.0182
GTGTTAGA	-0.0193
AAATCTAG	0.121
ATGCCAAC	0.0656
CAACGATA	-0.128
CAGCCTCG	-0.157
GAGCAAGA	-0.037
CCGAGAGG	-0.0295
GTTCGGGA	-0.00896
GGTGTTTA	-0.12
AAATTTGT	0.102
GAGAAGAC	0.0559
AGGAAGAT	0.254
CCGTCGCG	-0.155

Sequence	PBM E-score
CAGAAGAG	-0.0054
ACTATCTA	-0.0777
ATTCCGTG	-0.111
CGTACAAA	-0.207
CCACGAAG	-0.0422
ATCCGAGC	-0.065
CTTTACCA	0.0126
CCGTGCCG	-0.103
AGACTAAA	0.0743
CACGCCAG	-0.192
GTGAGATA	-0.00882
CCTGCCCG	-0.269
AGAATGTG	-0.221
ATGGTACC	0.0555
AAGAACAA	0.031
AAACAGGC	-0.117
GGAGAGAA	-0.0838
AGATTTAC	0.149
ACTGTCAT	-0.153
AAGCCGTC	0.0932
GAACCTGC	-0.112
GATCCGTA	0.0138
CCTTGAGC	-0.105
ATGGAAGG	-0.201
CATGGCCG	-0.106

Sequence	PBM E-score
CACAACGG	-0.302
TGCACACA	-0.235
CTTCGATC	-0.147
CAGGCGGG	0.0356
CCCTACCG	-0.134
CATACTGC	0.0056
TAAAAGAA	0.217
TGGTAGAA	-0.0549
ATCTACGC	0.0521
CAAGAATA	0.19
CTTCGAAA	0.102
AAGTGAGG	-0.0969
ATGACTCA	-0.148
GTTCAAAC	-0.0258
ATGAAGAG	0.0953
ACCGCTCC	-0.0135
ACAGTCAT	-0.21
AACAGTCA	-0.196
CGGTAACC	0.134
AGTGGCAC	0.15
CAGCCTGA	0.099
CCCATAAA	0.0198
